# According to PubChem BioAssay AID493208 (National Center for Advancing Translational Sciences (NCATS), 2011):
# Screen size: about 44,000 compounds; about 340 (0.77%) were called active. About 5% were inconclusive and are not listed. The call rests on the fitted dose curve; in most records, active means well fitted inhibition curve with a large enough effect; inconclusive means small, poorly fitted or top-dose-only effect; inactive means flat fitted curve, though single readings scatter. The list shows a part of the results.
# Assay: Acumen qHTS Assay for Inhibitors of the mTORC1 Signaling Pathway in MEF (Tsc2-/-, p53-/-) Cells: Sytravon;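 further: plate controls were DMSO for no effect and rapamycin for full effect; nearly all actives have a fitted effect of over 50% in size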
# Settings: phospho-rpS6 immunofluorescence/PI, 24 h; series mostly up to 38.3 µM; activity change, negative = inhibition: at the top concentration
# How it was run: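 Plate MEFs (Tsc2-/-, p53-/-, empty vector) in DMEM/10% FBS; after 24 h add compound, incubate 24 h at 37 degree Celsius; fix in PFA/TX-100, block, stain phospho-rpS6 and 10 uM PI; scan at 488 nm; report % positive cells.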
row,Compound,"activity change, negative = inhibition"
1,CCc1ccc(-n2c(=O)c3c(C)c(C(=O)N(C)C)sc3n(Cc3cccc(C)c3)c2=O)cc1,inactive: -2.73%
2,CCOc1ccc(CNC(=O)CCn2nc(C)c3c(C)n(-c4ccccc4)nc3c2=O)cc1,inactive: -4.1%
3,COc1ccc(C(=O)Nc2ccc(-c3cc4ccccc4oc3=O)c(C)c2)cc1Br,inactive: -0.0198%
4,Cc1ccc(C)c(N2CCN(C(=O)CCCn3ncn4c(cc5occc54)c3=O)CC2)c1,inactive: -6.11%
5,CN(C)c1ccc(CNC(=O)CCCN2C(=O)CCn3nc(-c4cccn4C)cc32)cc1,inactive: -6.53%
6,COc1cc(-c2nc3sccn3c2Nc2cccc(C)c2)ccc1O,inactive: 7.81%
7,Cc1ccc(O)c(-c2ccnc3cc(-c4ccc(Cl)cc4)nn23)c1,inactive: -16.1%
8,Cc1coc2cc3oc(=O)c(CC(=O)NCc4ccc(F)cc4)c(C)c3cc12,inactive: -12.5%
9,Cc1ccc(-n2c(=O)c3c4c(sc3n(Cc3ccccc3F)c2=O)CCC4)cc1C,inactive: -1.99%
10,Cc1nc(-c2ccc(Cl)cc2)sc1CCNC(=O)c1ccco1,inactive: -16.3%
11,Oc1ccccc1-c1nc(/C=C/c2ccccc2Cl)no1,inactive: -5.37%
12,Cc1ccccc1NC(=O)CCc1c(C)nn(-c2ccc(N3CCCCC3)nn2)c1C,inactive: 1.98%
13,Cc1ccc(Cn2c(=O)n(Cc3nc(-c4ccccc4)no3)c(=O)c3cc4c(cc32)OCO4)cc1,inactive: -1.31%
14,COc1ccccc1OCCCn1c(C2CC(=O)N(c3ccccc3Cl)C2)nc2ccccc21 (configuration not stated),inactive: -0.835%
15,COc1ccc(C(=O)Nc2ccc3nc(SCc4ccc(C)cc4)sc3c2)cc1,inactive: -0.502%
16,CC(=O)c1cccc(NC(=O)CCc2c(C)nc3c(-c4ccc(F)cc4)c(C)nn3c2C)c1,inactive: -5.87%
17,O=C(Nc1ccccc1)N1CCN(C(=O)c2nsc3ccccc23)CC1,inactive: -0.904%
18,CCCc1nc2sc3c(N4CCCCC4)ncnc3c2c2c1CCCC2,inactive: -18.9%
19,COc1ccc(OC)c(NC(=O)Cn2cc(S(=O)(=O)c3ccccc3)c(=O)c3cc(C)ccc32)c1,inactive: -6.22%
20,Cc1ccc(CCNC(=O)CCn2c(=O)c3cccn3c3ccc(F)cc32)cc1,inactive: 2.77%
21,Fc1cccc(F)c1-c1nc(-c2ccncc2)no1,inactive: -12.6%
22,Cc1cc(=O)n2nc(N3CCC(C(=O)Nc4ccc(C(C)C)cc4)CC3)sc2n1,inactive: -0.683%
23,Cc1cccc(NC(=O)Cn2c(=O)n(Cc3ccc(C(=O)NCc4ccc5c(c4)OCO5)cc3)c(=O)c3ccccc32)c1,inactive: 7.53%
24,O=C(CCn1c(=O)c2cccn2c2ccc(F)cc21)NCc1ccccc1F,inactive: -5.79%

row,Compound,"activity change, negative = inhibition"
1,Cc1ccc(NC(=O)CSc2nc(-c3ccc(F)cc3)cc(C(F)(F)F)c2C#N)cc1,inactive: 4.28%
2,CCNC(=O)CC1C(=O)N(c2ccccc2)C(=O)N1Cc1ccc(F)cc1 (configuration not stated),inactive: -12.1%
3,COc1ccc(NC(=O)Cn2c(=O)oc3cc(S(=O)(=O)NC(C)C)ccc32)cc1OC,inactive: -5.44%
4,CCOc1ccc(C(=O)c2cn(CC(=O)Nc3cc(OC)cc(OC)c3)c3ccc(F)cc3c2=O)cc1,inactive: -2.18%
5,Cc1ccccc1Cn1c(CCCNC(=O)C2CCCCC2)nc2ccccc21,inactive: -4.62%
6,Cc1cccc(OCc2nnc(SCC(=O)Nc3ccc(C)cc3C)o2)c1,inactive: 5.38%
7,Cc1ccccc1Cn1c(SCc2ccc(C(=O)NCc3cccs3)cc2)nc2ccncc21,inactive: -2.59%
8,CCCSCCCNC(=O)C1CCN(C(=O)c2cc3sccc3n2C)CC1,inactive: 0.943%
9,COc1ccccc1N1CCN(S(=O)(=O)c2ccc3c(c2)oc(=O)n3C)CC1,inactive: -11.6%
10,Cc1nnc(N2CCC(C(=O)NC(C)C)CC2)c2nn(-c3ccc(Cl)cc3)c(C)c12,inactive: 1.89%
11,CCC1CCCCN1S(=O)(=O)c1ccc(NC(=O)c2cc(=O)c3ccccc3o2)cc1 (configuration not stated),inactive: 5.62%
12,CCCCOc1ccc(C2c3c(-c4ccccc4O)n[nH]c3C(=O)N2Cc2ccncc2)cc1OC (configuration not stated),inactive: -18.8%
13,O=C(Nc1nc(-c2ccc(Br)cc2)ns1)c1ccc(F)cc1,inactive: -0.953%
14,O=S(=O)(c1ccc(-n2cnnn2)cc1)N1CCN(c2ccccc2F)CC1,inactive: -9.84%
15,CC(=O)c1cccc(NC(=O)Cn2c(SCC(=O)Nc3ccc(F)cc3)nc3ccccc32)c1,inactive: 6.82%
16,CCOc1ccc(-n2c(C)nc3c(cnn3-c3ccc(C)cc3)c2=O)cc1,inactive: 0.221%
17,COc1ccc(-c2c(C#N)c(SCC(=O)Nc3ccccc3C)nc(C)c2C(=O)Nc2ccccc2)cc1OC,inactive: 5.71%
18,COCCCNC(=O)CSc1nc(-c2cccc(F)c2)[nH]c1-c1ccccc1,inactive: 2.63%
19,O=C(CN1CCN(Cc2ccccc2Cl)C1=O)NCc1ccccc1Cl,inactive: 1.05%
20,COc1ccc(CCN2C(=O)N(c3ccc(F)cc3)C(=O)C2CC(=O)Nc2ccccc2)cc1 (configuration not stated),inactive: -13.4%
21,N#C/C(=C\c1ccc(Cl)cc1)C(=O)NCC1CCCO1 (configuration not stated),inactive: -7.26%
22,Cn1cc(S(=O)(=O)c2ccccc2)c(=O)c2cc(F)c(N3CCOCC3)cc21,inactive: -5.31%
23,CCc1cnc2c(c1SCC(=O)Nc1ccc(Cl)cc1)c(=O)n(C)c(=O)n2C,inactive: -7.49%
